# Measured values: the supplement of paper PMC3334620
# Whole data set: some 33,000 sequences, median “E-score (-0.5 to 0.5)” near -0.054, cut for the highest 2% near 0.35. The list shows a part of the results.
# Molecular target: T1, Stb5 (UniProt P38699)
# T1 sequence: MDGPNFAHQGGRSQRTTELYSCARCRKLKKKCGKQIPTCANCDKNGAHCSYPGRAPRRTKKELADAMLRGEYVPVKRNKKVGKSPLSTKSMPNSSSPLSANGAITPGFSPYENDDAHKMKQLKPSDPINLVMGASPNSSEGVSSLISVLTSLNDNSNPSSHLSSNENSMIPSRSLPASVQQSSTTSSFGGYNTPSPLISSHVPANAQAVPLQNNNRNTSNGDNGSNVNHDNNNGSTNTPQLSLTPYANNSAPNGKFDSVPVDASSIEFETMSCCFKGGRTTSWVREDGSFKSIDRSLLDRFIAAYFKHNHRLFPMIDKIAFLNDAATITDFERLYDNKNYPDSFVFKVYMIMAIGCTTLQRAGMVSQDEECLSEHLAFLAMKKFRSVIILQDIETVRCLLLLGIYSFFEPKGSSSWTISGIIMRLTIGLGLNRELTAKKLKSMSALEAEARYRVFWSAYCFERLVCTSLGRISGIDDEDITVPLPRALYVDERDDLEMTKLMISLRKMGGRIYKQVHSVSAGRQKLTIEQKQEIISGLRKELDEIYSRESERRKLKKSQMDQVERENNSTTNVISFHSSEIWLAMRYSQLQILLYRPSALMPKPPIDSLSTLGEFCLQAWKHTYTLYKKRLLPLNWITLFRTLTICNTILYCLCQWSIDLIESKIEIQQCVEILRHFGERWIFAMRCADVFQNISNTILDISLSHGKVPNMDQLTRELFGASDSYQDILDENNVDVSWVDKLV
# Experiment: PBM E-score (8-mer binding enrichment) (E-score (-0.5 to 0.5)); higher = stronger / more preferred TF binding; most listed sequences are background and not binding sites
# Details: protein concentration: 200 nM; construct: GST-full length
# Description: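 Universal 'all 10-mer' protein binding microarrays (Agilent AMADID 015681) probed with GST-tagged S. cerevisiae TFs (full-length or DBD) made by in vitro transcription/translation (PURExpress), about 100-200 nM. Bound TF was detected with fluorescent anti-GST. Each ungapped 8-mer (which stands for itself and its reverse complement) is scored by the PBM enrichment score (E-score), a modified Wilcoxon-Mann-Whitney statistic from -0.5 to +0.5, computed with the Universal PBM Analysis Suite. Scale: above 0.35 generally sequence-specific binding.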
row,Sequence,PBM E-score
1,CTGTTCGA,-0.175
2,GGGTGAAC,0.0974
3,ATAGACCG,0.239
4,GACTTTTA,0.0546
5,CTGTTGCC,-0.037
6,CTTCGCTC,0.0297
7,GGTTAATA,0.213
8,CAGCTGGG,-0.0897
9,CTGCCGTC,0.121
10,GAAATCCA,-0.0752
11,CATTTCAC,-0.0886
12,TAATCAGA,0.0338
13,GCCCTCAC,-0.0791
14,CTCCGCAC,0.21
15,CATCTGCC,0.0249
16,AACTGCTC,-0.231
17,CCTGGGGC,-0.19
18,ACATGAAT,-0.255
19,CGCTCTCC,0.0161
20,CCCCTCCA,-0.0355
21,ACGATGGG,-0.12
22,CTATAACA,0.0862
23,AGATTCCC,0.0129
24,ATAGCCTA,-0.279
25,AGGCTTAT,-0.239

row,Sequence,PBM E-score
1,ATAACGGA,0.252
2,GTCTTAGA,-0.00713
3,CGTGCAAC,-0.0492
4,AATACAGG,0.0627
5,GCTGCTAA,0.122
6,GTTGGCTA,-0.238
7,ACGCGCCC,0.0789
8,AACAGATC,-0.277
9,GGGTTACC,0.138
10,CCATTATC,0.0468
11,CCAGTCCG,0.163
12,CTAAATGC,0.134
13,GGGGGAAA,0.165
14,AAAGGGAA,-0.00346
15,AACGAATG,-0.273
16,CAGTATAC,-0.0649
17,CGGGGTTC,0.388
18,CAAATACG,-0.129
19,ATTCAGCA,-0.272
20,CTTTTCAA,0.117
21,GGAGCCCC,0.144
22,CAAAGAGC,0.0172
23,GAAAATAC,0.102
24,CCTTGTGC,-0.164
25,CGCCGAGC,0.261

row,Sequence,PBM E-score
1,GAGGTTAC,0.0589
2,CGTAGACA,-0.0236
3,TGCCCCAA,-0.123
4,CCGTAAAG,0.149
5,AAATCATG,-0.141
6,CTGGTGGA,-0.253
7,GGCGCCCA,-0.113
8,AAAGGTAC,-0.00399
9,AATCGATG,-0.167
10,ATACTGAG,-0.127
11,CATGTCAC,0.0398
12,TCCCCCGA,0.263
13,CCAAAATA,0.104
14,ATGCGAAG,-0.246
15,ATCCGAGG,0.0334
16,AGGTTGCA,-0.201
17,CCAGGAGG,-0.238
18,CAGGCCAG,-0.182
19,CAGACAAG,-0.124
20,GATGGTTA,-0.0293
21,AAATCGAA,-0.244
22,ATTAGAAG,-0.143
23,CAACAGAA,-0.096
24,AGGGACCA,-0.272
25,ACTGTTAG,-0.316

row,Sequence,PBM E-score
1,AGTCTACC,-0.00578
2,GCTCCGCC,0.347
3,ACGTTCGG,0.104
4,GCACGAGC,-0.0836
5,GCATAGAC,0.13
6,AGAAACAT,-0.163
7,CACTAACC,-0.122
8,AGGACAGC,-0.101
9,GACACCCC,0.014
10,CGAAGTGA,-0.226
11,ACAAGTGA,-0.0645
12,ATGAGCAA,-0.0315
13,AAGACGAT,0.0211
14,GCGTACTA,-0.0242
15,AGCGCGCC,0.106
16,CCAACGGA,0.188
17,GCTACTCA,-0.153
18,ATACAGGA,-0.0578
19,AACGATCT,0.00102
20,ACCATCGG,0.165
21,AGCGCACT,0.145
22,ACCGCGTA,0.313
23,CTCAACTC,-0.154
24,AGAAACTC,0.0104
25,CCGGTCAC,0.227

row,Sequence,PBM E-score
1,CATCCAGG,-0.248
2,GGAACCAC,0.131
3,AAGCCGGC,0.225
4,AGCGTATA,-0.0484
5,ATATACTC,-0.0452
6,CACTATAA,-0.0214
7,ACGCAGCT,-0.161
8,AGCAATTG,0.0348
9,GCGGTCTA,0.23
10,CCAAGGTC,0.0782
11,AAATCCGA,0.332
12,CGTGGTAG,-0.145
13,GTGACCTA,-0.144
14,CGCTGATC,0.0743
15,CCCCATAC,-0.106
16,CCTTGTAC,-0.143
17,AGTTTTGG,-0.0302
18,AGCTCAGG,-0.185
19,ACGGACTA,0.288
20,AAACAGAC,-0.131
21,GGTGAATA,0.0403
22,CCGTCGCC,0.296
23,ATCTGATC,-0.162
24,CGCTTAAG,0.125
25,TAACCGAA,0.0166

row,Sequence,PBM E-score
1,AACGTTCA,-0.083
2,ATCAAAAT,-0.22
3,GGTAGGAA,-0.089
4,CATGCGTA,-0.141
5,AGGGCATC,-0.208
6,AATACTAA,-0.174
7,CCAAGAAA,-0.219
8,TGCACGCA,-0.0348
9,CTCGGGCA,0.0971
10,AGACCATA,-0.139
11,CTTAGTGA,-0.0497
12,ATGACTCC,0.145
13,CGAGCCGA,-0.145
14,GGTACCCA,-0.0736
15,AAGGGCCG,0.34
16,AACATGCC,0.122
17,ATTACCAA,-0.0501
18,CCGCTACA,0.262
19,GCAAGTCC,0.116
20,CGGTGGAC,0.149
21,CACTCGAG,-0.217
22,GATCGATC,-0.018
23,GATGTGAC,-0.0651
24,CCTCCTCC,-0.233
25,CCTGGAGA,-0.307

row,Sequence,PBM E-score
1,GACATGGA,-0.0821
2,CCCTGGGA,-0.0706
3,CAACTACA,-0.0881
4,ATGTACCA,-0.0814
5,GCCAGCCA,-0.0714
6,TAATGTAA,-0.00366
7,AGCAGCCA,-0.241
8,AGAAACCC,0.152
9,CCCTGAAG,-0.0687
10,GACTTGAA,-0.105
11,AGAAAGCC,0.115
12,CGTTCTAC,0.00478
13,ACCCGCGG,0.285
14,CTCTCCTC,-0.331
15,AGCCTCGA,-0.3
16,GCTTACAA,-0.0923
17,AAAGGGAT,-0.198
18,AGTCACCG,0.314
19,CAAGAAAA,-0.098
20,CAATGGAG,-0.291
21,TACCCGCA,0.16
22,ATTGGACA,-0.0996
